This is one part of the list.
How the values were obtained:
Assay in all cases: glycan array binding signal (z-score within array); higher = stronger binding
Conditions in all cases: glycan notation: IUPAC condensed, linker removed; mutation: R144S
[1] = target: GlcNAc(b1-4)GlcNAc
Summary of the method: (§1)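 Glycan array data were curated from 3228 arrays in the Consortium for Functional Glycomics database and kept only where the protein sequence was available. Glycan names were converted to IUPAC-condensed notation, and columns mapping to the same glycan were averaged. The binding signal is a within-array Z-score, averaged across arrays of the same protein sequence at different concentrations or buffers and across linkers. Negative Z-scores can be read as non-binding.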

[2] = target: GlcNAc(b1-4)GlcNAc(b1-4)GlcNAc
Summary of the method: as §1

[3] = target: GlcNAc(b1-4)GlcNAc(b1-4)GlcNAc(b1-4)GlcNAc(b1-4)GlcNAc
Summary of the method: as §1

[4] = target: GlcNAc(b1-4)GlcNAc(b1-4)GlcNAc(b1-4)GlcNAc(b1-4)GlcNAc(b1-4)GlcNAc
Summary of the method: as §1

[5] = target: GlcNAc(b1-4)[GlcNAc(b1-6)]GalNAc
Summary of the method: as §1

[6] = target: GlcNAc(b1-6)Gal(b1-4)GlcNAc
Summary of the method: as §1

[7] = target: GlcNAc(b1-6)GalNAc
Summary of the method: as §1

[8] = target: GlcNAc3Prop(b1-4)GlcNAc
Summary of the method: as §1

[9] = target: GlcNAc6S(b1-3)Gal(b1-4)GlcNAc
Summary of the method: as §1

[10] = target: Kdn(a2-3)Gal(b1-3)GalNAc
Summary of the method: as §1

[11] = target: Kdn(a2-3)Gal(b1-3)GlcNAc
Summary of the method: as §1

[12] = target: Kdn(a2-3)Gal(b1-4)Glc
Summary of the method: as §1

[13] = target: Kdn(a2-3)Gal(b1-4)GlcNAc
Summary of the method: as §1

[14] = target: Kdn(a2-3)Gal(b1-4)[Fuc(a1-3)]GlcNAc
Summary of the method: as §1

[15] = target: Kdn(a2-6)Gal(b1-4)GlcNAc
Summary of the method: as §1

[16] = target: Man(a1-2)Man(a1-2)Man(a1-3)Man
Summary of the method: as §1

[17] = target: Man(a1-2)Man(a1-2)Man(a1-6)[Man(a1-3)]Man
Summary of the method: as §1

[18] = target: Man(a1-2)Man(a1-3)Man
Summary of the method: as §1

[19] = target: Man(a1-2)Man(a1-3)[Man(a1-2)Man(a1-6)]Man
Summary of the method: as §1

[20] = target: Man(a1-2)Man(a1-3)[Man(a1-2)Man(a1-6)]Man(a1-6)[Man(a1-2)Man(a1-2)Man(a1-3)]Man
Summary of the method: as §1

[21] = target: Man(a1-2)Man(a1-3)[Man(a1-2)Man(a1-6)]Man(a1-6)[Man(a1-2)Man(a1-2)Man(a1-3)]Man(b1-4)GlcNAc(b1-4)GlcNAc
Summary of the method: as §1

[22] = target: Man(a1-2)Man(a1-3)[Man(a1-6)]Man(a1-6)[Man(a1-2)Man(a1-3)]Man(b1-4)GlcNAc(b1-4)GlcNAc
Summary of the method: as §1

[23] = target: Man(a1-2)Man(a1-6)[Man(a1-3)]Man(a1-6)[Man(a1-2)Man(a1-2)Man(a1-3)]Man
Summary of the method: as §1

[24] = target: Man(a1-2)Man(a1-6)[Man(a1-3)]Man(a1-6)[Man(a1-2)Man(a1-2)Man(a1-3)]Man(b1-4)GlcNAc(b1-4)GlcNAc
Summary of the method: as §1

[25] = target: Man(a1-3)[Man(a1-6)]Man
Summary of the method: as §1

[26] = target: Man(a1-3)[Man(a1-6)]Man(a1-6)[Man(a1-2)Man(a1-3)]Man(b1-4)GlcNAc(b1-4)GlcNAc
Summary of the method: as §1

[27] = target: Man(a1-3)[Man(a1-6)]Man(a1-6)[Man(a1-3)]Man
Summary of the method: as §1

[28] = target: Man(a1-3)[Man(a1-6)]Man(a1-6)[Man(a1-3)]Man(b1-4)GlcNAc(b1-4)GlcNAc
Summary of the method: as §1

[29] = target: Man(a1-3)[Man(a1-6)]Man(b1-4)GlcNAc(b1-4)GlcNAc
Summary of the method: as §1

[30] = target: Man(a1-6)Man
Summary of the method: as §1

[31] = target: Man(b1-4)GlcNAc
Summary of the method: as §1

[32] = target: Neu5Ac(a2-3)Gal
Summary of the method: as §1

[33] = target: Neu5Ac(a2-3)Gal(b1-3)GalNAc
Summary of the method: as §1

[34] = target: Neu5Ac(a2-3)Gal(b1-3)GalNAc(b1-3)Gal(a1-4)Gal(b1-4)Glc
Summary of the method: as §1

[35] = target: Neu5Ac(a2-3)Gal(b1-3)GalNAc(b1-4)[Neu5Ac(a2-3)]Gal(b1-4)Glc
Summary of the method: as §1

[36] = target: Neu5Ac(a2-3)Gal(b1-3)GalNAc6S
Summary of the method: as §1

[37] = target: Neu5Ac(a2-3)Gal(b1-3)GlcNAc
Summary of the method: as §1

[38] = target: Neu5Ac(a2-3)Gal(b1-3)GlcNAc(b1-2)Man(a1-3)[Neu5Ac(a2-3)Gal(b1-3)GlcNAc(b1-2)Man(a1-6)]Man(b1-4)GlcNAc(b1-4)GlcNAc
Summary of the method: as §1

B1: Gal 3 (Homo sapiens), P17931 (protein)
chain: MADNFSLHDALSGSGNPNPQGWPGAWGNQPAGAGGYPGASYPGAYPGQAPPGAYPGQAPPGAYHGAPGAYPGAPAPGVYPGPPSGPGAYPSSGQPSAPGAYPATGPYGAPAGPLIVPYNLPLPGGVVPRMLITILGTVKPNANSILDFQRGNDVAFHFNPRFNENNRRVIVCNTKLDNNWGREERQSVFPFESGKPFKIQVLVEPDHFKVAVNDAHLLQYNHRVKKLNEISKLGISGDIDLTSASYTMI
glycan array binding signal (z-score) [1]: -0.359 | glycan array binding signal (z-score) [2]: -0.362 | glycan array binding signal (z-score) [3]: -0.363 | glycan array binding signal (z-score) [4]: -0.326 | glycan array binding signal (z-score) [5]: -0.359 | glycan array binding signal (z-score) [6]: -0.361 | glycan array binding signal (z-score) [7]: -0.36 | glycan array binding signal (z-score) [8]: -0.361 | glycan array binding signal (z-score) [9]: -0.352 | glycan array binding signal (z-score) [10]: -0.361 | glycan array binding signal (z-score) [11]: -0.358 | glycan array binding signal (z-score) [12]: -0.361 | glycan array binding signal (z-score) [13]: -0.357 | glycan array binding signal (z-score) [14]: -0.352 | glycan array binding signal (z-score) [15]: -0.361 | glycan array binding signal (z-score) [16]: -0.356 | glycan array binding signal (z-score) [17]: -0.356 | glycan array binding signal (z-score) [18]: -0.348 | glycan array binding signal (z-score) [19]: -0.354 | glycan array binding signal (z-score) [20]: -0.358 | glycan array binding signal (z-score) [21]: -0.349 | glycan array binding signal (z-score) [22]: -0.356 | glycan array binding signal (z-score) [23]: -0.356 | glycan array binding signal (z-score) [24]: -0.355 | glycan array binding signal (z-score) [25]: -0.354 | glycan array binding signal (z-score) [26]: -0.36 | glycan array binding signal (z-score) [27]: -0.354 | glycan array binding signal (z-score) [28]: -0.351 | glycan array binding signal (z-score) [29]: -0.363 | glycan array binding signal (z-score) [30]: -0.355 | glycan array binding signal (z-score) [31]: -0.36 | glycan array binding signal (z-score) [32]: -0.352 | glycan array binding signal (z-score) [33]: -0.362 | glycan array binding signal (z-score) [34]: -0.359 | glycan array binding signal (z-score) [35]: -0.356 | glycan array binding signal (z-score) [36]: -0.365 | glycan array binding signal (z-score) [37]: -0.358 | glycan array binding signal (z-score) [38]: -0.359

Source: the supplement of paper PMC8728848
